In the supplement of paper PMC12217912:
This is one part of the list. Sequences were assembled here from the parent chain. Inactive controls read about 0.05.

B1: TEV protease; numbered along this chain (parent)
chain: MGESLFKGPRDYNPISSSICHLTNESDGHTTSLYGIGFGPFIITNKHLFRRNNGTLVVQSLHGVFKVKDTTTLQQHLVDGRDMIIIRMPKDFPPFPQKLKFREPQREERICLVTTNFQTKSMSSMVSDTSCTFPSGDGIFWKHWIQTKDGQCGSPLVSTRDGFIVGIHSASNFTNTNNYFTSVPKNFMELLTNQEAQQWVSGWRLNADSVLWGGHKVFMVKPEEPFQPVKEATQL

Variants of: B1
Test: raw area under fraction-flipped curve 0-4 h after induction (AUC4h, not background-subtracted), DNA-recorder readout of cleavage of the substrate (dimensionless); higher = more cleavage of the substrate by the protease variant
Settings: temperature: 34 °C; time window: 0-4 h after rhamnose induction
Description: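 In vivo DNA recorder in E. coli TOP10(DE3) ΔrhaA at 34 °C. Each TEVp single-site mutant (parent TEVp 0) is paired with a single-site variant of the 7-mer TEVs (canonical ENLYFQ|S). The substrate sits between flexible linkers in a Bxb1-sfGFP-TEVs-SsrA fusion, so cleavage stabilises Bxb1 and speeds flipping of a recombination array, read by NGS. The value is the raw area under the fraction-flipped curve over 0-4 h after rhamnose induction (AUC4h), with ≥20 reads per time point. It is not background-subtracted; inactive controls average about 0.047.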
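Further: Bxb1 expression induced with 0.2% (w/v) L-rhamnose at OD600 near 0.5, cultures sampled hourly, flipped fraction per protease–substrate barcode pair counted by paired-end Illumina sequencing.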

| Variant | area with substrate ENLYFQA | area with substrate ENLYFQC | area with substrate ENLYFQD | area with substrate ENLYFQF | area with substrate ENLYFQG | area with substrate ENLYFQH | area with substrate ENLYFQI | area with substrate ENLYFQK | area with substrate ENLYFQL | area with substrate ENLYFQM | area with substrate ENLYFQN | area with substrate ENLYFQP | area with substrate ENLYFQR | area with substrate ENLYFQS | area with substrate ENLYFQT | area with substrate ENLYFQV | area with substrate ENLYFQW | area with substrate ENLYFQY | area with substrate ENLYFQQ | area with substrate ENLYFQE |
| --- | --- | --- | --- | --- | --- | --- | --- | --- | --- | --- | --- | --- | --- | --- | --- | --- | --- | --- | --- | --- |
| V210K | 0.0721 | 0.0804 | 0.0562 | 0.0524 | 0.0568 | 0.106 | 0.0744 | 0.0487 | 0.062 | 0.0682 | 0.0608 | 0.0567 | 0.0692 | 0.0769 | 0.0495 | 0.0869 | 0.0577 | 0.0543 |  |  |
| V210G | 0.0897 | 0.11 |  | 0.0623 |  | 0.0677 |  | 0.0686 | 0.0498 | 0.0467 |  | 0.0735 | 0.0722 | 0.0934 | 0.0788 | 0.0484 | 0.0466 |  |  |  |
| V183I | 0.107 |  |  |  | 0.0637 | 0.0793 |  |  |  |  | 0.0829 | 0.057 | 0.0428 | 0.0989 | 0.0614 | 0.0678 |  | 0.0649 | 0.0894 |  |
| V183C | 0.13 |  | 0.0768 | 0.0556 | 0.112 |  |  | 0.0588 | 0.0689 | 0.0907 | 0.0335 | 0.0524 | 0.0834 | 0.109 | 0.0779 | 0.0668 |  | 0.0624 |  |  |
| I164H | 0.0478 |  | 0.0373 |  | 0.0531 |  | 0.0556 | 0.0449 | 0.0556 | 0.0718 | 0.0719 | 0.0361 | 0.0573 | 0.0536 | 0.0604 | 0.0424 |  |  | 0.0253 |  |
| I164L | 0.086 | 0.0864 |  | 0.0952 | 0.0919 |  | 0.0602 | 0.0575 | 0.0651 | 0.0726 | 0.0718 | 0.0477 | 0.0625 | 0.0889 | 0.0476 | 0.0432 |  | 0.0924 |  |  |
| I164E | 0.0663 | 0.0478 | 0.0519 |  | 0.0544 | 0.0495 | 0.056 | 0.0534 | 0.0641 | 0.0513 | 0.0582 | 0.0415 | 0.0449 | 0.0542 | 0.0547 |  | 0.0453 | 0.0315 |  | 0.0422 |
| W212M | 0.121 | 0.139 |  |  | 0.113 |  | 0.0704 | 0.0592 | 0.0683 | 0.113 | 0.101 |  | 0.061 | 0.126 | 0.0776 |  | 0.0668 |  | 0.0841 |  |
| G213Y | 0.0719 | 0.0598 |  | 0.0375 | 0.0825 | 0.0567 | 0.0673 | 0.058 |  | 0.0533 |  |  | 0.0602 | 0.0639 | 0.0675 | 0.0673 | 0.071 | 0.0552 |  |  |
| G213A | 0.0742 | 0.0917 |  | 0.0449 | 0.0731 | 0.0588 | 0.0532 | 0.0576 | 0.0623 | 0.0653 | 0.0666 | 0.0679 | 0.0628 | 0.0815 | 0.0459 | 0.0587 | 0.0578 | 0.0574 | 0.0389 | 0.0355 |
| G213K | 0.0634 | 0.0605 | 0.0557 |  | 0.0614 | 0.051 | 0.0614 | 0.0508 | 0.0597 | 0.0612 | 0.0563 | 0.062 | 0.0686 | 0.0614 | 0.0564 | 0.0555 | 0.0643 | 0.0474 |  |  |
| V217N | 0.0624 |  | 0.0529 | 0.0646 | 0.0457 | 0.0555 |  |  | 0.0603 | 0.0747 | 0.0627 | 0.0475 | 0.0588 | 0.0616 | 0.0626 |  | 0.0499 |  |  |  |
| E189V | 0.0895 | 0.114 |  |  | 0.103 |  |  | 0.0678 | 0.0992 |  | 0.0766 | 0.0686 | 0.0569 | 0.0962 | 0.0656 |  | 0.0682 |  |  |  |
| E189D | 0.107 | 0.116 | 0.0657 |  |  | 0.0929 |  | 0.0678 |  |  | 0.0789 |  | 0.0471 | 0.1 | 0.0618 | 0.067 |  | 0.0753 |  | 0.0648 |
| H215G | 0.058 | 0.0448 |  | 0.048 | 0.0876 | 0.0659 | 0.0585 | 0.0584 | 0.0618 | 0.0754 | 0.0519 | 0.0646 | 0.0637 | 0.0611 | 0.0511 | 0.0599 | 0.0702 |  | 0.0785 |  |
| Q198V | 0.103 |  |  |  | 0.109 | 0.0761 | 0.0561 | 0.0618 | 0.0736 |  | 0.0725 |  |  | 0.108 | 0.0744 |  | 0.0672 | 0.0792 |  |  |
| Q198Y | 0.0934 | 0.102 | 0.0711 |  | 0.0764 | 0.0648 | 0.0672 | 0.0553 | 0.0683 | 0.0799 | 0.0684 | 0.0614 | 0.0558 | 0.091 | 0.0608 |  | 0.0615 | 0.0808 |  |  |
| T181G | 0.0883 | 0.104 |  |  | 0.0802 | 0.0738 | 0.0521 | 0.0436 | 0.0619 | 0.0703 |  | 0.0535 | 0.0607 | 0.09 | 0.0707 | 0.0551 | 0.0538 |  |  |  |
| T192P | 0.0617 | 0.0602 |  |  |  | 0.0762 | 0.0826 | 0.0613 | 0.0609 | 0.055 | 0.0534 | 0.063 | 0.0557 | 0.0627 | 0.063 |  | 0.0565 | 0.0646 | 0.047 |  |
| T192D | 0.107 | 0.117 | 0.0709 | 0.0548 | 0.0896 |  | 0.115 | 0.058 | 0.0571 | 0.103 | 0.0669 |  | 0.0519 | 0.0994 | 0.0447 | 0.052 | 0.0572 |  | 0.0619 |  |
| N193P | 0.0592 | 0.0955 |  |  |  | 0.0353 |  | 0.058 | 0.0609 | 0.0448 | 0.0531 | 0.0588 | 0.0536 | 0.0714 | 0.0589 | 0.0532 | 0.0209 | 0.0551 |  | 0.0691 |
| T176L | 0.0688 | 0.0493 |  |  | 0.0667 | 0.0718 | 0.0289 | 0.0738 | 0.0616 | 0.0633 | 0.0698 |  | 0.0491 | 0.0731 | 0.0501 | 0.0657 | 0.095 | 0.0635 | 0.0598 |  |
| S158H | 0.0435 | 0.0803 |  |  |  | 0.0608 |  | 0.046 | 0.0549 | 0.0524 |  | 0.0514 | 0.0407 | 0.0532 | 0.056 | 0.0453 | 0.0579 |  |  |  |
| K216L | 0.0769 |  |  | 0.0784 | 0.0823 | 0.0685 | 0.0435 | 0.0667 |  |  |  |  | 0.0647 | 0.0874 | 0.053 | 0.035 |  |  |  |  |
| R204E | 0.124 | 0.133 | 0.0735 |  |  |  | 0.0613 | 0.0731 | 0.0581 | 0.0873 | 0.1 | 0.0834 |  | 0.119 |  | 0.0648 | 0.0524 | 0.0896 | 0.0781 |  |
